# Laboratory results: the supplement of paper PMC8728848
# The other results are listed elsewhere or left out.
# What was measured:
# Assay in all cases: glycan array binding signal (z-score within array); higher = stronger binding
# Conditions in all cases: glycan notation: IUPAC condensed, linker removed
# Fuc(a1-2)Gal = molecular target: Fuc(a1-2)Gal
# Summary of the method: (§1)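 Glycan array binding is given as a within-array Z-score, which can be read as non-binding when negative. The arrays, 3228 of them, came from the Consortium for Functional Glycomics database and were retained only where the protein sequence was available. Z-scores were averaged across arrays of the same protein sequence at different concentrations or buffers and across linkers.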
# Fuc(a1-2)Gal(b1-3)GalNAc = molecular target: Fuc(a1-2)Gal(b1-3)GalNAc
# Summary of the method: as §1
# [1] = molecular target: Fuc(a1-2)Gal(b1-3)GalNAc(a1-3)[Fuc(a1-2)]Gal(b1-4)Glc
# Summary of the method: as §1
# [2] = molecular target: Fuc(a1-2)Gal(b1-3)GalNAc(a1-3)[Fuc(a1-2)]Gal(b1-4)GlcNAc
# Summary of the method: as §1
# [3] = molecular target: Fuc(a1-2)Gal(b1-3)GalNAc(b1-3)Gal
# Summary of the method: as §1
# [4] = molecular target: Fuc(a1-2)Gal(b1-3)GalNAc(b1-3)Gal(a1-4)Gal(b1-4)Glc
# Summary of the method: as §1
# [5] = molecular target: Fuc(a1-2)Gal(b1-3)GalNAc(b1-4)[Neu5Ac(a2-3)]Gal(b1-4)Glc
# Summary of the method: as §1
# Fuc(a1-2)Gal(b1-3)GlcNAc = molecular target: Fuc(a1-2)Gal(b1-3)GlcNAc
# Summary of the method: as §1
# [6] = molecular target: Fuc(a1-2)Gal(b1-3)GlcNAc(b1-2)Man(a1-3)[Fuc(a1-2)Gal(b1-3)GlcNAc(b1-2)Man(a1-6)]Man(b1-4)GlcNAc(b1-4)GlcNAc
# Summary of the method: as §1
# [7] = molecular target: Fuc(a1-2)Gal(b1-3)GlcNAc(b1-2)Man(a1-3)[Fuc(a1-2)Gal(b1-3)GlcNAc(b1-2)Man(a1-6)]Man(b1-4)GlcNAc(b1-4)[Fuc(a1-6)]GlcNAc
# Summary of the method: as §1
# [8] = molecular target: Fuc(a1-2)Gal(b1-3)GlcNAc(b1-3)Gal(b1-4)Glc
# Summary of the method: as §1
# [9] = molecular target: Fuc(a1-2)Gal(b1-3)GlcNAc(b1-3)GalNAc
# Summary of the method: as §1
# [10] = molecular target: Fuc(a1-2)Gal(b1-3)GlcNAc(b1-3)[Fuc(a1-2)Gal(b1-3)GlcNAc(b1-6)]GalNAc
# Summary of the method: as §1
# [11] = molecular target: Fuc(a1-2)Gal(b1-3)GlcNAc(b1-3)[Fuc(a1-3)[Gal(b1-4)]GlcNAc(b1-6)]Gal(b1-4)Glc
# Summary of the method: as §1
# [12] = molecular target: Fuc(a1-2)Gal(b1-3)GlcNAc(b1-3)[Gal(b1-4)GlcNAc(b1-6)]Gal(b1-4)Glc
# Summary of the method: as §1
# [13] = molecular target: Fuc(a1-2)Gal(b1-3)GlcNAc(b1-3)[Neu5Ac(a2-6)Gal(b1-4)GlcNAc(b1-6)]Gal(b1-4)Glc
# Summary of the method: as §1
# [14] = molecular target: Fuc(a1-2)Gal(b1-3)GlcNAc6S
# Summary of the method: as §1
# [15] = molecular target: Fuc(a1-2)Gal(b1-3)[Fuc(a1-4)]GlcNAc
# Summary of the method: as §1
# [16] = molecular target: Fuc(a1-2)Gal(b1-3)[Fuc(a1-4)]GlcNAc(b1-2)Man(a1-3)[Fuc(a1-2)Gal(b1-3)[Fuc(a1-4)]GlcNAc(b1-2)Man(a1-3)]Man(b1-4)GlcNAc(b1-4)GlcNAc
# Summary of the method: as §1
# [17] = molecular target: Fuc(a1-2)Gal(b1-3)[Fuc(a1-4)]GlcNAc(b1-2)Man(a1-3)[Fuc(a1-2)Gal(b1-3)[Fuc(a1-4)]GlcNAc(b1-2)Man(a1-6)]Man(b1-4)GlcNAc(b1-4)GlcNAc
# Summary of the method: as §1
# [18] = molecular target: Fuc(a1-2)Gal(b1-3)[Fuc(a1-4)]GlcNAc(b1-2)Man(a1-3)[Fuc(a1-2)Gal(b1-3)[Fuc(a1-4)]GlcNAc(b1-2)Man(a1-6)]Man(b1-4)GlcNAc(b1-4)[Fuc(a1-6)]GlcNAc(b1-4)[Fuc(a1-6)]GlcNAc
# Summary of the method: as §1
# [19] = molecular target: Fuc(a1-2)Gal(b1-3)[Fuc(a1-4)]GlcNAc(b1-3)[Fuc(a1-3)[Gal(b1-4)]GlcNAc(b1-6)]Gal(b1-4)Glc
# Summary of the method: as §1
# [20] = molecular target: Fuc(a1-2)Gal(b1-3)[Fuc(a1-4)]GlcNAc(b1-3)[Gal(b1-4)GlcNAc(b1-6)]Gal(b1-4)Glc
# Summary of the method: as §1
# [21] = molecular target: Fuc(a1-2)Gal(b1-4)Fuc(a1-3)]GlcNAc(b1-2)Man(a1-3)[Fuc(a1-2)Gal(b1-4)[Fuc(a1-3)]GlcNAc(b1-2)Man(a1-6)]Man(b1-4)GlcNAc(b1-4)GlcNAc
# Summary of the method: as §1
# Fuc(a1-2)Gal(b1-4)Glc = molecular target: Fuc(a1-2)Gal(b1-4)Glc
# Summary of the method: as §1
# Fuc(a1-2)Gal(b1-4)Glc6S = molecular target: Fuc(a1-2)Gal(b1-4)Glc6S
# Summary of the method: as §1
# Fuc(a1-2)Gal(b1-4)GlcNAc = molecular target: Fuc(a1-2)Gal(b1-4)GlcNAc
# Summary of the method: as §1
# [22] = molecular target: Fuc(a1-2)Gal(b1-4)GlcNAc(b1-2)Man
# Summary of the method: as §1
# [23] = molecular target: Fuc(a1-2)Gal(b1-4)GlcNAc(b1-2)Man(a1-3)[Fuc(a1-2)Gal(b1-4)GlcNAc(b1-2)Man(a1-6)]Man(b1-4)GlcNAc(b1-4)GlcNAc
# Summary of the method: as §1
# [24] = molecular target: Fuc(a1-2)Gal(b1-4)GlcNAc(b1-2)Man(a1-3)[Fuc(a1-2)Gal(b1-4)GlcNAc(b1-2)Man(a1-6)]Man(b1-4)GlcNAc(b1-4)[Fuc(a1-6)]GlcNAc
# Summary of the method: as §1
binder,measurement,setting,value
"Gal 4 (Mus musculus), P56470 (protein) MAYVPAPGYQPTYNPTLPYYQPIPGGLNVGMSVYIQGVASEHMKRFFVNFVVGQDPGSDVAFHFNPRFDGWDKVVFNTLQGGKWGSEERKRSMPFKKGAAFELVFIVLAEHYKVVVNGNPFYEYGHRLPLQMVTHLQVDGDLQLQSINFIGGQPLRPQGPPMMPPYPGPGHCHQQLNSLPTMEGPPTFNPPVPYFGRLQGGLTARRTIIIKGYVPPTGKSFAINFKVGSSGDIALHINPRMGNGTVVRNSLLNGSWGSEEKKITHNPFGPGQFFDLSIRCGLDRFKVYANGQHLFDFAHRLSAFQRVDTLEIQGDVTLSYVQI",glycan array binding signal (z-score),Fuc(a1-2)Gal,-0.214
same,glycan array binding signal (z-score),Fuc(a1-2)Gal(b1-3)GalNAc,-0.221
same,glycan array binding signal (z-score),[1],2.12
same,glycan array binding signal (z-score),[2],3.62
same,glycan array binding signal (z-score),[3],-0.235
same,glycan array binding signal (z-score),[4],-0.231
same,glycan array binding signal (z-score),[5],-0.226
same,glycan array binding signal (z-score),Fuc(a1-2)Gal(b1-3)GlcNAc,-0.185
same,glycan array binding signal (z-score),[6],-0.167
same,glycan array binding signal (z-score),[7],-0.224
same,glycan array binding signal (z-score),[8],0.659
same,glycan array binding signal (z-score),[9],-0.188
same,glycan array binding signal (z-score),[10],-0.299
same,glycan array binding signal (z-score),[11],-0.175
same,glycan array binding signal (z-score),[12],-0.089
same,glycan array binding signal (z-score),[13],-0.276
same,glycan array binding signal (z-score),[14],4.25
same,glycan array binding signal (z-score),[15],-0.235
same,glycan array binding signal (z-score),[16],-0.287
same,glycan array binding signal (z-score),[17],-0.168
same,glycan array binding signal (z-score),[18],-0.312
same,glycan array binding signal (z-score),[19],-0.212
same,glycan array binding signal (z-score),[20],-0.193
same,glycan array binding signal (z-score),[21],-0.243
same,glycan array binding signal (z-score),Fuc(a1-2)Gal(b1-4)Glc,-0.196
same,glycan array binding signal (z-score),Fuc(a1-2)Gal(b1-4)Glc6S,0.723
same,glycan array binding signal (z-score),Fuc(a1-2)Gal(b1-4)GlcNAc,-0.232
same,glycan array binding signal (z-score),[22],-0.328
same,glycan array binding signal (z-score),[23],-0.128
same,glycan array binding signal (z-score),[24],-0.243
